According to PubChem BioAssay AID1345083 (National Center for Advancing Translational Sciences (NCATS), 2018):
Out of some 94,000 compounds screened, about 6,200 (6.6%) were called active. The inconclusive results got no clear call from the source; some entries with a clear call stand among them for comparison. Calls come from the whole dose curve; as a rule, active = well fitted inhibition curve with a large enough effect; inconclusive = small, poorly fitted or top-dose-only effect; inactive = flat fitted curve, though single readings scatter. A potency beside an inconclusive call is a rough fit, not a confirmed value.

Test: Cytotoxic Profiling in HEK 293 Cell Line of Diverse Libraries Using Quantitative High-Throughput Screening; note: nearly all actives have a fitted effect of over 60% in size
Details: HEK 293 viability, ATP luminescence (CellTiter-Glo), 48-72 h; series mostly up to 115 µM
Procedure, shortened: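 Cytotoxicity was scored by loss of ATP-coupled luminescence (CellTiter-Glo) in HEK 293 cells. Compound treatment ran 48 or 72 hr at 37 degree Celsius, 5% CO2, 95% humidity.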
Potency is the fitted concentration of half-maximal effect; tags give direction and shape of the fitted curve.

SMILES | Potency
c1cc(-c2ncon2)cc(N2CCc3nc[nH]c3C2)n1 | inactive
CN1[C@@H](CCC(=O)NCc2ccccc2)CNC(=O)[C@@H]2[C@H]1CCN2Cc1ccc(C(F)(F)F)cc1 | inconclusive: 50.1 µM [inhibitor, partial curve, poor fit]
CCCN(CC1CC1)C(=O)c1ccc2c(c1)C(O)CCCCCN2C (centres undefined) | inconclusive: 50.1 µM [inhibitor, partial curve, poor fit]
O=C(c1ccccc1Cl)N1CCC(C(=O)N2CCC(c3nc4ccncc4[nH]3)C2)CC1 (centres undefined) | inactive
CC1=C[C@@H](CNC(=O)C2CCCCC2)[C@H](C(C)C)C[C@H]1CC(=O)N1CCN(c2ccccn2)CC1 | inconclusive: 50.1 µM [inhibitor, partial curve, poor fit]
CCOC(=O)Cc1csc(NC(=O)Cn2nc3c(cc2=O)CCCC3)n1 | inactive
CN1C[C@@H](NC(=O)Nc2ccc(F)cc2F)C[C@H]1c1nc(-c2ccc(Cl)cc2)no1 | inconclusive: 126 µM [inhibitor, single point]
c1ccc(CCCc2noc(-c3ccc(N4CCOCC4)nc3)n2)cc1 | inconclusive: 56.2 µM [inhibitor, partial curve, poor fit]
COc1ccc(-c2nc3cc(C(=O)N4CCOCC4)ccc3o2)cn1 | inactive
COc1cc(OC)cc(C(=O)N2CCN(c3cc(-c4ccc(Cl)cc4)[nH]n3)CC2)c1 | inconclusive: 44.7 µM [inhibitor, partial curve, poor fit]
CNC(=O)c1cc(C)nc2onc(C3CCCN(C(=O)c4ccccc4F)C3)c12 (centres undefined) | inactive
CCc1ccc(C(=O)NC2CCN(c3cc(-c4cccs4)[nH]n3)C2)cc1 (centres undefined) | inconclusive: 89.1 µM [inhibitor, single point]
CCn1cc(CN2CC(Oc3ccc(-c4noc(-c5cccnc5)n4)cc3)C2)cn1 | inconclusive: 25.1 µM [inhibitor, partial curve, poor fit]
CN(Cc1cn(C)nc1-c1ccc(C2CCCCC2)cc1)C1CCOC1 (centres undefined) | inconclusive: 89.1 µM [inhibitor, single point]
Cc1cccc(O[C@H]2COCCN(c3nc4ccccc4o3)C2)n1 | inconclusive: 100 µM [inhibitor, partial curve, poor fit]
Cc1cnc(CC2CCN(C(=O)NC(C)(C)C)CC2)n1Cc1ccc(F)cc1 | inactive
Cc1ccc(C(=O)N2CCC3(CC2)CC(=O)Nc2ccccc2O3)cc1 | inconclusive: 100 µM [inhibitor, partial curve, poor fit]
COc1ccc(-c2cc(CC3(NCc4ccccc4)COC3)no2)cc1 | active: 100 µM
Cc1cccc(C(=O)Nc2cccc(C3OC(=O)N(Cc4ccccc4)C3C(=O)N3CCOCC3)c2)c1 (centres undefined) | inconclusive: 89.1 µM [inhibitor, single point]
CCCCn1c(=O)c(C(=O)N2CCN(C(=O)Cc3ccc(OC)cc3)CC2)nc2cccnc21 | inactive
CCN(CC)C(=O)C1=C(C)N=C2SC=C(CC(=O)NCC3CC3)N2C1c1ccccc1 (centres undefined) | inactive
Cc1cc(C)c(CNC(=O)c2nc(-c3ccnn3C)cc3c2ccn3C(C)C)c(=O)[nH]1 | inconclusive: 100 µM [inhibitor, partial curve]

SMILES | Potency
c1cnc(N2CCOCC2)c(CNCc2ccc(C3CCCCO3)o2)c1 (centres undefined) | inactive
CN1CCN(C(=O)C2CCCN(c3nc4ncccc4o3)C2)CC1 (centres undefined) | inactive
CC1Oc2ccc(NC(=O)c3c(F)cccc3F)cc2CN(Cc2cc(F)cc(F)c2)C1=O (centres undefined) | inconclusive: 10 µM [inhibitor, full curve, poor fit]
CN(C)CCNC(=O)C[C@@H]1c2nc(NC(=O)c3ccc(C(C)(C)C)cc3)sc2C[C@@H]2[C@](C)(CO)[C@H](O)CC[C@]21C | active: 31.6 µM
COC(=O)[C@H](NC(=O)[C@@H]1[C@@H](NC(=O)Nc2cccc(SC)c2)CCN1C(=O)c1cccn1C)C(C)C | inactive
Cc1nn(-c2ccc(C(F)(F)F)cc2)c(C)c1[C@@H]1C=C[C@@H](NC(=O)CCCC(=O)O)C1 | inactive
O=c1[nH]c(C2CCCN(CC3CCCCC3)C2)nn1-c1ccc(Cl)cc1 (centres undefined) | inactive
c1ccc(CNc2ncc(-c3ccc(N4CCOCC4)cc3)c3c2OCC3)cc1 | inconclusive: 56.2 µM [inhibitor, full curve, poor fit]
O=C(C[C@@H]1CCNC[C@@H]1Cc1cc(-c2ccccc2)on1)NCc1ccc(F)cc1 | active: 39.8 µM
CC1(COc2ccc3[nH]ccc3c2)COc2ccc(C(=O)N3CC(O)C3)cc2N1 (centres undefined) | inconclusive: 100 µM [inhibitor, partial curve]
COC(=O)[C@H](Cc1ccccc1)NC1CCN(c2cccc(NC(=O)CC3CCCC3)c2)CC1 | active: 39.8 µM
Cc1nccc(N2CCN(C(=O)N3CCOCC3)CC(C(=O)O)C2)n1 (centres undefined) | inactive
CCc1nc(-c2c3n(c(=O)n(CC(=O)Nc4ccccc4CC)c2=O)CCCCC3)no1 | inactive
CCN(CCNC(=O)CC1CCN(c2ccnc(OC)n2)CC1)Cc1ccccc1 | inconclusive: 79.4 µM [inhibitor, partial curve]
Cc1cnc(-c2ccccc2)n1C1CCCN(C(=O)COc2ccc(F)cc2)C1 (centres undefined) | inconclusive: 89.1 µM [inhibitor, single point]
Cc1cc(C(=O)N2C[C@@H](C)[C@H](c3nc(-c4ccccc4)no3)C2)n[nH]1 | inconclusive: 50.1 µM [inhibitor, partial curve, poor fit]
Fc1cc(Nc2ncc(-c3ccccc3)c3c2OCC3)cc(N2CCOCC2)c1 | inconclusive: 35.5 µM [inhibitor, full curve, poor fit]
CN(Cc1cccnc1)c1nc2c(c(=O)[nH]1)CCN(Cc1ccccc1F)CC2 | inconclusive: 44.7 µM [inhibitor, partial curve, poor fit]
Cn1cc(CN2CCCC(CCc3cccc(C(F)(F)F)c3)C2)cn1 (centres undefined) | inconclusive: 50.1 µM [inhibitor, partial curve, poor fit]
COc1cccc(N2C(=O)NC(=NC3CCCCC3)C23CCCN(CC2CC2)C3)c1 (centres undefined) | inconclusive: 50.1 µM [inhibitor, partial curve, poor fit]
Cc1ccc(C2Cn3nnc(C(=O)Nc4ccc(F)c(Cl)c4)c3CO2)cc1 (centres undefined) | inconclusive: 50.1 µM [inhibitor, partial curve, poor fit]
CC1(c2ccccc2)N(Cc2ccccc2F)C(=O)OC12CCN(Cc1cccc(C#N)c1)CC2 (centres undefined) | inconclusive: 22.4 µM [inhibitor, full curve, poor fit]

SMILES | Potency
CC(C)CNC(=O)c1nc2sccn2c1-c1ccc(C(F)(F)F)cc1 | inconclusive: 89.1 µM [inhibitor, single point]
CCOc1ccccc1NC(=O)Cn1c(=O)c(-c2noc(CC)n2)c2n(c1=O)CCCC2 | inactive
O=C(NCCc1noc(-c2ccncc2)n1)C1CCCO1 (centres undefined) | inactive
C[C@@]12CO[C@@H](Cc3ccccc3)O[C@@H]1CC[C@]1(C)C2CC[C@@H](O)[C@H]1CC(=O)NCc1cc(F)cc(F)c1 (some centres undefined) | active: 39.8 µM
CC(C)c1ccc(Nc2n[nH]c(C(O)C3CC3)n2)cc1 (centres undefined) | inconclusive: 141 µM [inhibitor, partial curve, poor fit]
CCC(C(=O)N1CCN(Cc2ccc(C)c(C)c2)C(=O)C1)n1cccn1 (centres undefined) | inconclusive: 39.8 µM [inhibitor, partial curve, poor fit]
Cn1ccnc1CN1CCN(C(=O)C2(Cn3ccnc3)CC2)CC1 | inactive
O=C(Cc1ccc(Oc2ccccc2)cc1)N1CC(COc2ccccc2)C2(C1)CN(C(=O)c1cn[nH]c1)C2 (centres undefined) | inconclusive: 50.1 µM [inhibitor, partial curve, poor fit]
COc1ccc(-c2cccc(C(=O)NCCc3ccc(Cl)cc3)c2)nn1 | inconclusive: 20 µM [inhibitor, full curve, poor fit]
O=C(Nc1ccccc1)N1CCC2(CC1)SCC(=O)N2c1ccc(Cl)cc1 | inconclusive: 89.1 µM [inhibitor, single point]
O=C1CC(c2noc(-c3cc(F)cc(F)c3)n2)CN1c1ccc(F)cc1 (centres undefined) | inconclusive: 89.1 µM [inhibitor, single point]
COCCn1nc2n(c1=O)CCN(Cc1ccc3[nH]ccc3c1)CC2 | inactive
Cc1nnc(N2CCC3(CCC(=O)N(CCCN(C)C)C3)CC2)c2ccccc12 | inconclusive: 39.8 µM [inhibitor, single point]
CCS(=O)(=O)N1CCOCCNC(=O)[C@H]2CCCC[C@H]21 | inactive
Cc1nc(-c2ccccc2)n(Cc2ccc(F)cc2F)c(=O)c1CCO | inconclusive: 50.1 µM [inhibitor, partial curve, poor fit]
N#Cc1cccc(NC(=O)O[C@@H]2CO[C@H]3[C@@H]2OC[C@@H]3Nc2nccc(-c3cccc(F)c3)n2)c1 | active: 10 µM
Cc1ccc(CNC(=O)C2(c3ccc(NC(=O)C4CC4)cc3)CCCCC2)o1 | active: 44.7 µM
O=C(CCC1CCCN(S(=O)(=O)c2cccc(F)c2)C1)NC1CCCCC1 (centres undefined) | inconclusive: 12.6 µM [inhibitor, full curve]
Cc1ccc(CNC(=O)c2cc(-c3ccc(C(F)(F)F)cc3)nc3c2cnn3C)o1 | inconclusive: 22.4 µM [inhibitor, full curve, poor fit]
COc1cccc(CN2CC3(C2)NC(=O)c2ccccc2O3)c1 | inconclusive: 100 µM [inhibitor, partial curve]
